No constants are given. Whether binding was seen depends on the method and setting. For part of these data: In cells and extracts the contact can be indirect. Some binding calls cover weakened binding; strength is not graded here.
Legend:
[1] = molecular target: T1, SRLTYSSR; assay: peptide microarray of 8mer LY75 peptides, LY75_A1 at 1 µg/mL, anti-human IgG Alexa 647
T1 sequence (peptide): SRLTYSSR

[2] = molecular target: T2, KVFHAERI; assay: peptide microarray of 8mer LY75 peptides
T2 sequence (peptide): KVFHAERI

[3] = molecular target: T3, HRPWRRGW; assay: peptide microarray of 8mer LY75 peptides
T3 sequence (peptide): HRPWRRGW

[4] = molecular target: T4, HCYKSDQA; assay: peptide microarray of 8mer LY75 peptides
T4 sequence (peptide): HCYKSDQA

[5] = molecular target: T5, SNFHPLLV; assay: peptide microarray of 8mer LY75 peptides
T5 sequence (peptide): SNFHPLLV

[6] = molecular target: T6, LVSGRLRI; assay: peptide microarray of 8mer LY75 peptides
T6 sequence (peptide): LVSGRLRI

[7] = molecular target: T7, VKDCRSFK; assay: peptide microarray of 8mer LY75 peptides
T7 sequence (peptide): VKDCRSFK

[8] = molecular target: T8, WEVKDCRS; assay: peptide microarray of 8mer LY75 peptides
T8 sequence (peptide): WEVKDCRS

[9] = molecular target: T9, TVKYLNNL; assay: peptide microarray of 8mer LY75 peptides
T9 sequence (peptide): TVKYLNNL

[10] = molecular target: T10, ERHFVSLC; assay: peptide microarray of 8mer LY75 peptides
T10 sequence (peptide): ERHFVSLC

[11] = molecular target: T11, HFYDDREF; assay: peptide microarray of 8mer LY75 peptides
T11 sequence (peptide): HFYDDREF

[12] = molecular target: T12, PASLSCYK; assay: peptide microarray of 8mer LY75 peptides
T12 sequence (peptide): PASLSCYK

[13] = molecular target: T13, VSGRLRIP; assay: peptide microarray of 8mer LY75 peptides
T13 sequence (peptide): VSGRLRIP

[14] = molecular target: T14, VFHRPWRR; assay: peptide microarray of 8mer LY75 peptides
T14 sequence (peptide): VFHRPWRR

[15] = molecular target: T15, CYKSDQAL; assay: peptide microarray of 8mer LY75 peptides
T15 sequence (peptide): CYKSDQAL

[16] = molecular target: T16, HPLLVSGR; assay: peptide microarray of 8mer LY75 peptides
T16 sequence (peptide): HPLLVSGR

[17] = molecular target: T17, VFHAERIV; assay: peptide microarray of 8mer LY75 peptides
T17 sequence (peptide): VFHAERIV

[18] = molecular target: T18, CYKVFHAE; assay: peptide microarray of 8mer LY75 peptides
T18 sequence (peptide): CYKVFHAE

[19] = molecular target: T19, KDCRSFKA; assay: peptide microarray of 8mer LY75 peptides
T19 sequence (peptide): KDCRSFKA

[20] = molecular target: T20, DCRSFKAL; assay: peptide microarray of 8mer LY75 peptides
T20 sequence (peptide): DCRSFKAL

[21] = molecular target: T21, NFHPLLVS; assay: peptide microarray of 8mer LY75 peptides
T21 sequence (peptide): NFHPLLVS

[22] = molecular target: T22, IQYKGHCY; assay: peptide microarray of 8mer LY75 peptides
T22 sequence (peptide): IQYKGHCY

[23] = molecular target: T23, LLVSGRLR; assay: peptide microarray of 8mer LY75 peptides
T23 sequence (peptide): LLVSGRLR

[24] = molecular target: T24, DCAAVKVF; assay: peptide microarray of 8mer LY75 peptides
T24 sequence (peptide): DCAAVKVF

[25] = molecular target: T25, CSERHFVS; assay: peptide microarray of 8mer LY75 peptides
T25 sequence (peptide): CSERHFVS

[26] = molecular target: T26, FHAERIVR; assay: peptide microarray of 8mer LY75 peptides
T26 sequence (peptide): FHAERIVR

[27] = molecular target: T27, RLTYSSRC; assay: peptide microarray of 8mer LY75 peptides
T27 sequence (peptide): RLTYSSRC

[28] = molecular target: T28, DQALHSFS; assay: peptide microarray of 8mer LY75 peptides
T28 sequence (peptide): DQALHSFS

[29] = molecular target: T29, VKVFHRPW; assay: peptide microarray of 8mer LY75 peptides
T29 sequence (peptide): VKVFHRPW

[30] = molecular target: T30, GHCYKSDQ; assay: peptide microarray of 8mer LY75 peptides
T30 sequence (peptide): GHCYKSDQ

[31] = molecular target: T31, FTYSRYPW; assay: peptide microarray of 8mer LY75 peptides
T31 sequence (peptide): FTYSRYPW

[32] = molecular target: T32, AAVKVFHR; assay: peptide microarray of 8mer LY75 peptides
T32 sequence (peptide): AAVKVFHR

[33] = molecular target: T33, FHQHSILA; assay: peptide microarray of 8mer LY75 peptides
T33 sequence (peptide): FHQHSILA

[34] = molecular target: T34, KSDQALHS; assay: peptide microarray of 8mer LY75 peptides
T34 sequence (peptide): KSDQALHS

[35] = molecular target: T35, CRSFKALS; assay: peptide microarray of 8mer LY75 peptides
T35 sequence (peptide): CRSFKALS

[36] = molecular target: T36, YKVFHAER; assay: peptide microarray of 8mer LY75 peptides
T36 sequence (peptide): YKVFHAER

[37] = molecular target: T37, FHPLLVSG; assay: peptide microarray of 8mer LY75 peptides
T37 sequence (peptide): FHPLLVSG

[38] = molecular target: T38, PLLVSGRL; assay: peptide microarray of 8mer LY75 peptides
T38 sequence (peptide): PLLVSGRL

[39] = molecular target: T39, LY75 tryptic peptide … (1099-1109) (human); assay: peptide pull down on LY75_A1 protein A beads, LC-MS/MS
T39 sequence (peptide): QTLQNASETVK

[40] = molecular target: T40, LY75 tryptic peptide … (877 to 890) (human); assay: as above
T40 sequence (peptide): ISEWPIDDHFTYSR

[41] = molecular target: T41, LY75 tryptic peptide … (896-910) (human); assay: as above
T41 sequence (peptide): FPVTFGEECLYMSAK

[42] = molecular target: T42, LY75 tryptic peptide … (1030-1044) (human); assay: as above
T42 sequence (peptide): ELTYSNFHPLLVSGR

B1: LY75_A1 (antibody, V domains shown)
VH: EVQLVESGGGLVKPGGSLRLSCAASGFTYSNAWMSWVRQAPGKGLEWVGRIKSKTDGGTTDYAAPVQGRFTISRDDSKNTLYLQMNSLKTEDTAVYYCTIFGVVSFDYWGQGTLVTVSS
VL: DVQMTQSPSSLSASVGDRVTITCRASQSISDYLSWYQQRPGKAPNLLIYAASNLKTGVPSRFSGSGSGTDFTLTISTLQPEDFATYYCQQSYRSPWTFGQGTKVEIKR
notes: detected with anti-human IgG in the microarray; also called antibody LY75_A1; LY75_A1 monoclonal antibody
binding [1]: binds | binding [2]: no binding (tested: 1 µg/mL) | binding [3]: no binding (tested: 1 µg/mL) | binding [4]: no binding (tested: 1 µg/mL) | binding [5]: no binding (tested: 1 µg/mL) | binding [6]: no binding (tested: 1 µg/mL) | binding [7]: no binding (tested: 1 µg/mL) | binding [8]: no binding (tested: 1 µg/mL) | binding [9]: no binding (tested: 1 µg/mL) | binding [10]: no binding (tested: 1 µg/mL) | binding [11]: no binding (tested: 1 µg/mL) | binding [12]: no binding (tested: 1 µg/mL) | binding [13]: no binding (tested: 1 µg/mL) | binding [14]: no binding (tested: 1 µg/mL) | binding [15]: no binding (tested: 1 µg/mL) | binding [16]: no binding (tested: 1 µg/mL) | binding [17]: no binding (tested: 1 µg/mL) | binding [18]: no binding (tested: 1 µg/mL) | binding [19]: no binding (tested: 1 µg/mL) | binding [20]: no binding (tested: 1 µg/mL) | binding [21]: no binding (tested: 1 µg/mL) | binding [22]: no binding (tested: 1 µg/mL) | binding [23]: no binding (tested: 1 µg/mL) | binding [24]: no binding (tested: 1 µg/mL) | binding [25]: no binding (tested: 1 µg/mL) | binding [26]: no binding (tested: 1 µg/mL) | binding [27]: no binding (tested: 1 µg/mL) | binding [28]: no binding (tested: 1 µg/mL) | binding [29]: no binding (tested: 1 µg/mL) | binding [30]: no binding (tested: 1 µg/mL) | binding [31]: no binding (tested: 1 µg/mL) | binding [32]: no binding (tested: 1 µg/mL) | binding [33]: no binding (tested: 1 µg/mL) | binding [34]: no binding (tested: 1 µg/mL) | binding [35]: no binding (tested: 1 µg/mL) | binding [36]: no binding (tested: 1 µg/mL) | binding [37]: no binding (tested: 1 µg/mL) | binding [38]: no binding (tested: 1 µg/mL) | binding [39]: binds | binding [40]: binds | binding [41]: binds | binding [42]: binds

Source: US20200040086A1 (BERLIN CHEMIE, published 2020)
